From publication PMC4336329 (PLoS ONE, 2015)
In all, about 310,000 compounds went through this assay and about 14,000 (4.5%) showed an effect of 50% or more. Effects have a minus sign here. Some of the results follow.

Target: human ether-à-go-go-related gene (hERG) potassium channel (human, UniProt Q12809)
Assay: primary screen, population patch clamp on CHO cells stably expressing hERG
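Note: peak tail current of the secondary pulse compared with the same well before compound.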

human ether-à-go-go-related gene (hERG) potassium channel, sequence (Q12809 whole entry, looked up): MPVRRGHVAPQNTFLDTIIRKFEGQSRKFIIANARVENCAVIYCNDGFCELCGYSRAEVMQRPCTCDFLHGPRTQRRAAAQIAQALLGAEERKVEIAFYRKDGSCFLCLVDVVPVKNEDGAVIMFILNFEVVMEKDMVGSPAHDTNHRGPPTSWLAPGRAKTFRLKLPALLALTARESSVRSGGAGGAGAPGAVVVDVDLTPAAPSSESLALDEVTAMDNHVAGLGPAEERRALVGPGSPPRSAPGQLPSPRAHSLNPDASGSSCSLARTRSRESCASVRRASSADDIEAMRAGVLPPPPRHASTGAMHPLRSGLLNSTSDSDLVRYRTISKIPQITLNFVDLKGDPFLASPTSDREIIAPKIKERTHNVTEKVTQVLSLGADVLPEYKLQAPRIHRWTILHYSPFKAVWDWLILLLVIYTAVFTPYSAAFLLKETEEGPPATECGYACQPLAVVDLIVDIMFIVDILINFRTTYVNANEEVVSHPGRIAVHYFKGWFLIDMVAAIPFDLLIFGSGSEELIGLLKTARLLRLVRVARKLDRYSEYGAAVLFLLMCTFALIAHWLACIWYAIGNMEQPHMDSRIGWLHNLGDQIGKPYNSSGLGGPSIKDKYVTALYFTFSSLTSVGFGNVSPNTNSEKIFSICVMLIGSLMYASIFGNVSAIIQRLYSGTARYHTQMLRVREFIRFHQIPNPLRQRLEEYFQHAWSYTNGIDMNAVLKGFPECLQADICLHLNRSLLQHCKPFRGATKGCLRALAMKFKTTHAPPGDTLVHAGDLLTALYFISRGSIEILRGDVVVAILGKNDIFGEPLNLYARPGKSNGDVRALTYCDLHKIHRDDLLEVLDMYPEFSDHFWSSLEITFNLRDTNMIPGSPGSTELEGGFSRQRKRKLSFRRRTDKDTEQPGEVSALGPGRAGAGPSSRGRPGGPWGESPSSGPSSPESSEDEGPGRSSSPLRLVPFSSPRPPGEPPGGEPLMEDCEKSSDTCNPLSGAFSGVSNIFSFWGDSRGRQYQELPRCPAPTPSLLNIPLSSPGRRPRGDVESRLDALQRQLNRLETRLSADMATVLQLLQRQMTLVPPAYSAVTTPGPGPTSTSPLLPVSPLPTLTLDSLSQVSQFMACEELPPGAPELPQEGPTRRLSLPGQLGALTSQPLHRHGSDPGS

Structure (SMILES)	hERG current change (%, negative = inhibition) at 10uM [%]
O=C1CN(C(=O)c2ccccc2F)C(c2ccc(F)cc2)c2cc(Br)ccc2N1 (stereo not drawn)	-23
CNC(=S)NNC(=O)c1sc(-c2cc(C)on2)nc1C	18
NNC(=O)CSc1cccc2cccnc12	9.09
COc1ccc(NS(=O)(=O)c2ccc(NC(=S)NC(=O)C(C)C)cc2)cc1	-2.92
C=CCc1ccc(OC(=O)NC2CCCCC2)c(OC)c1	-6.38
O=C(NC1CCCC1)c1cc(-c2cccc(Cl)c2)on1	5.93
COc1cc(CCC(=O)OCC(=O)Nc2ccc(F)c(F)c2)cc(OC)c1OC	-26.6
Cn1c(CN2CCOCC2)nc2cc(NC(=O)c3ccc(F)cc3)ccc21	-12.5
COc1ccc(C(=O)OCC(=O)NC2CCCCCC2)cc1OC	1.94
Cc1cnc(C(=O)OC(C)C(=O)Nc2cccc3ccccc23)cn1 (stereo not drawn)	16.7
O=C(CNC(=O)C1CC(=O)N(c2cccc3ccccc23)C1)Nc1ccccc1Br (stereo not drawn)	-9.51
Cn1c(SCC(=O)NC2CC2)nnc1-c1ccccc1Cl	12.1
CC(c1ccc(F)cc1)n1cc(S(=O)(=O)N2CCCC2)ccc1=O (stereo not drawn)	-14.7
C/C(=N\NC(=O)C1CC1)c1ccc(C)c(C)c1	16.2
Cc1ccc(-n2c(-c3cnccn3)n[nH]c2=S)cc1	-28.9
CN(CCc1ccccn1)C(=O)c1ccc(OC2CCN(CCc3ccccc3)CC2)cc1	-58.5
O=C1CC(c2ccco2)CC(O)=C1C=NCCN1CCN(C(=O)Nc2ccc(Cl)cc2)CC1 (stereo not drawn)	-66.4
COc1ccccc1-n1nnnc1SCC(=O)NC(=O)Cc1ccccc1	-8.32
CC(CC(=O)C1C(C)C=CCC1(C)C)NNC(N)=O (stereo not drawn)	28.7
O=P(OC1CCCCC1)(OC1CCCCC1)C(O)c1ccccc1 (stereo not drawn)	-12.6
C=CCc1c(C)nc(SCCC)[nH]c1=O	4.75
COc1ccc(/C=C/C(=O)Nc2cc(S(=O)(=O)N3CCCCC3)ccc2N2CCCCC2)cc1OC	4.11
O=C(OCc1nnc(-c2ccc([N+](=O)[O-])cc2)o1)C1CCN(C(=O)c2ccc(F)cc2)CC1	-76

Structure (SMILES)	hERG current change (%, negative = inhibition) at 10uM [%]
OC1CCC(Nc2ncnc3sccc23)CC1 (stereo not drawn)	13.2
C1CCc2nc3c(nc2C1)CCCC3	-10.7
COc1ccc(N2C(=O)CC(SCC(=O)O)C2=O)cc1 (stereo not drawn)	2.23
COCCn1c(Cc2ccccc2)nnc1SCC(=O)NC1CCCCC1	23.8
COCCCN(CC(=O)O)S(=O)(=O)c1cccc(Cl)c1	16.3
COc1cc(CC(NC(C)=O)C(=O)NC2CCN(C(=O)C3CC3)CC2)cc(OC)c1 (stereo not drawn)	21.7
COc1ccc(-c2oc3cc(OC)c(O)c(OC)c3c(=O)c2OC)cc1O	3.37
COc1ccc(C2CC(=O)c3c(O)cc(O)cc3O2)c(CC=C(C)C)c1OC (stereo not drawn)	5.41
Cc1onc(-c2ccccc2)c1C(=O)OCC(=O)N1CCN(c2ccccc2)CC1	-37.5
Cc1ccc(C(=O)Nc2ccc3ccccc3n2)cc1	-5.04
CN(CC(=O)Nc1cccc(F)c1)C(=O)c1cc(-c2ccccc2)nc2ccccc12	19.5
Cc1cccc(C)c1OCC(=O)Nc1ccccc1C(F)(F)F	8.6
O=C(O)c1ccc(S(=O)(=O)N2CCSCC2)cc1	23.3
CCOCCCNC(=O)C1c2ccccc2C(=O)N2CCc3ccccc3C12 (stereo not drawn)	3.49
O=c1c2ccccc2nnn1CSc1nnc2ccccn12	-4.97
CC1(C)CC(NC(=O)c2cccc(F)c2)CC(C)(C)N1	17.2
CCC(=O)OC1(c2ccccc2)C(C)CN(C)CC1C.Cl (stereo not drawn)	6.76
Cc1cc(C)n(C(=O)COc2ccccc2[N+](=O)[O-])n1	11.8
COC(=O)[C@H](Cc1ccccc1)NC(=O)Nc1ccc(C)cc1	18.1
CCN1C(=O)[C@H]2[C@@H](c3ccc(-c4ccc(OC)cc4)cc3)N3CCCC[C@@]3(C(=O)OC)[C@H]2C1=O.O=C(O)C(F)(F)F	-2.68
Cc1cc(C)c(NC(=O)C2CCN(c3cnccn3)CC2)c(C)c1	0.706
O=C(O)c1ccccc1N=Cc1c(O)n(-c2nccs2)c(=O)c2ccccc12	15.1
